From the supplement of paper PMC6135742 come the findings set out here.

Where a name gives a salt, the structure may show the parent alone. ± gives the standard deviation of the averaged measurements. The full ranking holds about 2,600 compounds; the median of “total cell number (DAPI+ nuclei) relative to DMSO vehicle control” is about -1.4, and the lowest 2% start at about -23. This is one part of the list.

The test has as its system jimpy (Plp1 jimpy) mouse iPSC-derived oligodendrocyte progenitor cells. The test is described as follows: total cell number (DAPI+ nuclei) relative to DMSO vehicle control (SDs above negative control mean); higher = more surviving cells. The conditions noted are these: 10 µM; 3 days.
For `O=C1CC[C@@H](C(=O)N2CSC[C@H]2C(=O)O)N1` [Pidotimod], the total cell number is -0.632. In the case of `COc1ccc(Cl)cc1NC(=O)Nc1cc(C)nc2ccccc12`, the total cell number is -10.4. As for `CN(C)CCC(c1ccc(Br)cc1)c1ccccn1` (stereo not given) [Brompheniramine hydrogen maleate], the figure is -1.36.

`COc1cc2ncnc(Nc3cccc(Br)c3)c2cc1OC` registered a total cell number of -7.3. Take `COc1cc(Nc2c(C#N)cnc3cc(OCCCN4CCN(C)CC4)c(OC)cc23)c(Cl)cc1Cl` [Bosutinib]: the total cell number is -10.5. For `COc1cc(Nc2c(C#N)cnc3cc(OCCCN4CCN(C)CC4)c(OC)cc23)c(Cl)cc1Cl` [Bosutinib (SKI-606)] the value was -26.4. `CC(=O)OC[C@H]1O[C@@H]([S-])[C@H](OC(C)=O)[C@@H](OC(C)=O)[C@@H]1OC(C)=O.CCP(CC)CC.[Au+]` [Auranofin] displayed a total cell number of -9.05.

In the case of `CCCCCCCCCC(=O)N[C@@H](Cc1c[nH]c2ccccc12)C(=O)N[C@H](CC(N)=O)C(=O)N[C@@H](CC(=O)O)C(=O)N[C@@H]1C(=O)NCC(=O)N[C@@H](CCCN)C(=O)N[C@@H](CC(=O)O)C(=O)N[C@H](C)C(=O)N[C@@H](CC(=O)O)C(=O)NCC(=O)N[C@H](CO)C(=O)N[C@@H]([C@H](C)CC(=O)O)C(=O)N[C@@H](CC(=O)c2ccccc2N)C(=O)O[C@@H]1C` [Daptomycin], the total cell number is 1.06. As for `CCC1(c2ccccc2)C(=O)NCNC1=O` [Primidone], the figure is -0.814 ± 0.99. As for `CCCCc1oc2ccc(NS(C)(=O)=O)cc2c1C(=O)c1ccc(OCCCN(CCCC)CCCC)cc1` [Dronedarone HCl], the figure is -15.2; as for `Nc1ncnc2c1ncn2[C@@H]1O[C@H](CO)[C@@H](O)[C@@H]1O` [Vidarabine], -8.76; as for `NC[C@@H]1O[C@H](C23CC4CC(CC(C4)C2)C3)Cc2c1ccc(O)c2O`, -10. In turn, `C[C@@](Cc1ccc(O)c(O)c1)(NN)C(=O)O` [Carbidopa] showed a total cell number of -3.87. For the molecule `C=CC(=O)Nc1cccc(Oc2nc(Nc3ccc(N4CCN(C)CC4)cc3)ncc2Cl)c1`, the total cell number was -26.9. Take `CCOc1nc2cccc(C(=O)O)c2n1Cc1ccc(-c2ccccc2-c2nnn[nH]2)cc1` [Candesartan]: the total cell number is -1.19. The molecule `CSC(=N)N` [S-Methylisothiourea hemisulfate] returned a total cell number of -1.65.

Consider `CCS(=O)(=O)N1CC(CC#N)(n2cc(-c3ncnc4[nH]ccc34)cn2)C1`, for which the total cell number was -1.56. As for `CC(C)S(=O)(=O)N[C@H]1CCOC[C@@H]1c1ccc(-c2ccc(C#N)s2)cc1`, the total cell number is -8.53. For `Cl.N[C@@H](CCC(=O)O)C(=O)O` [L-Glutamic acid hydrochloride] the value was -2.38; for `Clc1ccc2c(c1)CCc1cccnc1C2=C1CCNCC1` [Desloratadine], -5.13. For `O=C1NCC2(CCN(CCc3ccccc3)CC2)O1` [Fenspiride hydrochloride] the value was 2.58; for `O=C1NCC2(CCN(CCc3ccccc3)CC2)O1` [Fenspiride HCl], 9.07.

For `O=C(O)CCc1ccc(NCc2cccc(Oc3ccccc3)c2)cc1`, the total cell number is -0.425 ± 2. For the molecule `O=C1NC(=O)c2cc(Nc3ccccc3)c(Nc3ccccc3)cc21`, the total cell number is -7.71. As for `CCCOc1ccc2[nH]c(NC(=O)OC)nc2c1` [Oxibendazole], the figure is -3.62; as for `O=C(CCCCCN1CCN(c2ccccc2-c2ccccc2)CC1)NC1CCCc2ccccc21` (stereo not given) [LP 12 hydrochloride hydrate], -3.26. The molecule `O=C(c1ccc(F)cc1)C1CCN(CCn2c(=O)[nH]c3ccccc3c2=O)CC1` [Ketanserin] came in with a total cell number of -0.515. Consider `O=C(c1ccc(F)cc1)C1CCN(CCn2c(=O)[nH]c3ccccc3c2=O)CC1` [Ketanserin tartrate], for which the total cell number was -2.42.

Turning to `NC(=O)Nc1cc(-c2cccc(F)c2)sc1C(=O)N[C@H]1CCCNC1`, the total cell number is -17.4. As for `C[C@H]1[C@H](C)CC[C@]2(C(=O)O)CC[C@]3(C)C(=CC[C@@H]4[C@@]5(C)CC[C@H](O)C(C)(C)[C@@H]5CC[C@]43C)[C@H]12` [Ursolic Acid], the figure is -9.81. As for `NC1(C(=O)O)CC1` [1-Aminocyclopropanecarboxylic acid hydrochloride], the figure is -5.54. As for `CCN(CC)C(=O)c1ccc(O)c(OC)c1` [Vanillic acid diethylamide], the figure is -5.92; as for `Nc1nccc(Oc2ccc(NC(=O)c3c[nH]cc(-c4ccc(F)cc4)c3=O)cc2F)c1Cl`, 3.73. With `COc1ccc2c(Oc3ccc(NC(=O)c4c(C)n(CC(C)(C)O)n(-c5ccccc5)c4=O)nc3)ccnc2c1`, the total cell number is -3.37. `COc1c(C)cnc(Cn2cnc3c(Cl)nc(N)nc32)c1C` yielded a total cell number of -26.3. For the molecule `CC(C)CCNC(=O)[C@H](CC(C)C)NC(=O)[C@H]1O[C@@H]1C(=O)O` [Loxistatin Acid (E-64C)], the total cell number is -1.41.

On to `NCCCCCC(=O)O`, for which the total cell number was -0.295.

In the case of `c1ccc2c(CCNc3ccc(Nc4ccncc4)cc3)c[nH]c2c1`, the total cell number is -18.9. Molecule `Cc1nc2c([nH]1)-c1ccccc1N(C(=O)c1ccc(NC(=O)c3ccccc3-c3ccccc3)cc1)CC2` [Conivaptan HCl] yielded a total cell number of -1.77.

`CNCCc1ccccn1` [Betahistine 2HCl] gave a total cell number of -0.73.

`COc1ccc(C2(O)OC(=O)C(c3ccc4c(c3)OCO4)=C2Cc2cc(OC)c(OC)c(OC)c2)cc1` (stereo not given) had a total cell number of -1.66.

With `CCCCCCCCCCCCCCCC(=O)OC[C@H](O)[C@H]1OC(=O)C(O)=C1O` [L-Ascorbyl 6-palmitate], the total cell number was -0.778. The molecule `Nc1nc2c(ncn2COC(CO)CO)c(=O)[nH]1` [Ganciclovir] came in with a total cell number of -1.05 ± 0.75. As for `Cc1csc(-c2nnc(Nc3ccc(Oc4ncccc4-c4ccnc(N)n4)cc3)c3ccccc23)c1`, the total cell number was -3.57. As for `N=C(N)NCCCCNC(=N)N` [Arcaine sulfate], the total cell number was -1.25. For `CN1CCN(C2Cc3ccccc3Sc3ccc(Cl)cc32)CC1` (racemic) [(±)-Octoclothepin maleate] the value was -3.08; for `Clc1cccc(Cl)c1NC1=NCCN1` [Clonidine hydrochloride], -0.554. As for `Clc1cccc(Cl)c1NC1=NCCN1` [Clonidine HCl], the figure is 0.804; as for `C[C@]12C=CC(=O)N[C@@H]1CC[C@@H]1[C@@H]2CC[C@]2(C)[C@@H](C(=O)Nc3cc(C(F)(F)F)ccc3C(F)(F)F)CC[C@@H]12` [Dutasteride], -1.53. On to `CO[C@H]1/C=C/O[C@@]2(C)Oc3c(C)c(O)c4c(O)c(c5c(nc6cc(C)ccn65)c4c3C2=O)NC(=O)/C(C)=C\C=C\[C@H](C)[C@H](O)[C@@H](C)[C@@H](O)[C@@H](C)[C@H](OC(C)=O)[C@@H]1C` [Rifaximin], for which the total cell number was -2.3.
